Test results taken from the supplement of paper PMC3334620.
Whole data set: some 33,000 sequences, median “E-score (-0.5 to 0.5)” near -0.012, cut for the highest 2% near 0.27. The list shows a part of the results.

Each sequence was assayed against T1, Vhr1 (UniProt P40522) (assay: PBM E-score (8-mer binding enrichment) (E-score (-0.5 to 0.5)); higher = stronger / more preferred TF binding; most listed sequences are background and not binding sites). Settings: protein concentration: 200 nM; construct: GST-full length.
T1 sequence: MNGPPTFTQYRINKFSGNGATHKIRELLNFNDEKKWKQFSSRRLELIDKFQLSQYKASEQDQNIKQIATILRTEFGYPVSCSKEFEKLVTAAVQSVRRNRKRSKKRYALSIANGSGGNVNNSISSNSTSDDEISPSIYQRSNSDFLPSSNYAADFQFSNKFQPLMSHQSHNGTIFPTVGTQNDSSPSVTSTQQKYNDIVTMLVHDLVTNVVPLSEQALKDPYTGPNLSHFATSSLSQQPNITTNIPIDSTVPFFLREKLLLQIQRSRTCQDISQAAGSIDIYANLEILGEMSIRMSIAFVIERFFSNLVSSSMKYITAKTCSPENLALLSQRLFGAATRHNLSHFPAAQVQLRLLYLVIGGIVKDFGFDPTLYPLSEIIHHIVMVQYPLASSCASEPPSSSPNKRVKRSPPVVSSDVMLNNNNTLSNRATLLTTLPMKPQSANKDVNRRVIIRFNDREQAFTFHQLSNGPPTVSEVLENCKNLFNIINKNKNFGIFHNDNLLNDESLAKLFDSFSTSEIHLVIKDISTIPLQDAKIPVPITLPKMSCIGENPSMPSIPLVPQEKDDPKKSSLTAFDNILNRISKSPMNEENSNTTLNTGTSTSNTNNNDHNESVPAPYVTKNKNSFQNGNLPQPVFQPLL
Method in brief: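 Each ungapped eight-base word and its reverse complement, pooled, received an E-score from the Universal PBM Analysis Suite. Underlying scans, normalised with masliner, recorded fluorescent anti-GST bound to GST-tagged yeast transcription factors. These were applied at about 100-200 nM to universal all-10-mer Agilent arrays double-stranded by primer extension.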

Sequence	PBM E-score
TCTGAGAA	-0.131
ATAAGTCA	0.242
CAAGCCCG	-0.136
AGGTGTGG	0.0849
ACCTGTGA	0.259
GTCTAGGA	-0.0176
GTATTTTA	-0.074
AGATGGCG	0.058
CACCATAA	0.103
ATCATTCG	0.269
TACCAGCA	0.0525
GGGAGCAC	-0.135
ACGGTACA	0.126
AATGGTCG	-0.00024
AAGGGGGT	-0.111
CAGTCCTC	-0.135
ATCCCGTC	0.0792
CAAGCCGC	-0.0978
GCTTTGTA	0.131
ATTGCATG	0.214
CCCTGCCC	-0.116
AGTAAATG	0.0178
AACGATCC	0.0159
ACTTTGAG	0.0115
GACGGCCA	-0.0928

Sequence	PBM E-score
ATAAAGAG	-0.102
AAACGTGT	-0.191
CACTGATG	0.0443
GCGCCGTA	-0.0405
TCATGAGA	0.101
CAAAGGAG	-0.0104
CATGACGA	0.22
GACACTCC	0.148
CCAGGAGC	-0.139
ATCCAATG	-0.0286
CTCATGGA	0.0273
GGGATGTA	0.0546
AAGAGACC	-0.183
GTATTGAC	0.172
ACGACCGA	0.0413
GGGGAAAC	0.115
CCTTTTAA	-0.244
CTGCGATA	-0.0648
AAGAGCCA	0.175
GACACATC	0.196
GATATAGC	0.00139
AGATACGG	-0.0974
TAAAGGGA	-0.0415
AAGTCCGA	-0.205
GTTTCTCA	-0.136

Sequence	PBM E-score
TAGAGGCA	-0.188
CACCATCA	0.0797
AAGCTGGA	0.00624
AACTGGTG	0.124
CAAGCCCA	-0.0389
CAATCGAA	0.0913
AAATTTTA	-0.274
GCGCCACA	0.0101
AGACGCCC	0.035
CCAAAATC	0.142
AACGTGAT	0.0785
CCGATTGA	0.0861
CCATGGCG	0.0959
CTTAAAGC	-0.306
CCACTGGA	-0.0245
ATCCTGAG	-0.0118
ATGTGCCA	6e-05
CCTATCCC	0.121
AATTACAG	-0.0043
AGCAGTAT	0.0788
AACGTATT	-0.00015
GGGGAGAC	-0.0539
CAGCTAAA	-0.119
CAACATGA	0.3
GCCTTTCC	-0.323

Sequence	PBM E-score
GCATATCA	0.115
GCGTTAAA	-0.0751
AAACCAAT	0.124
GGAAACCC	-0.0855
AACTCAGA	0.0696
AAAATGCA	-0.161
CCTTTCCG	-0.181
CTTCACGC	-0.117
CACAGTGC	0.136
CTCCCGAA	-0.169
ATCCACTA	0.0617
AAGTAGTC	0.231
CAAGGCCG	-0.0522
TCAGAGGA	-0.128
CGCTGCAG	-0.139
AGCCACTC	0.0923
GGCATAGA	0.21
GATGTTAC	-0.0887
CGAAAAAA	-0.137
ATCCCAGC	0.0484
CTTACCTC	-0.218
ACGCTGCG	-0.128
GCAGACTA	0.00135
CATGTTCG	0.0242
GGGATGGA	-0.0135

Sequence	PBM E-score
TAACGTGA	-0.0922
CCGAAAGC	-0.273
CGTCCCTC	-0.112
CCGTTTCC	-0.0553
AAGTGGCT	0.111
CACACTGC	0.135
CAGTTCCA	0.0226
AGTCCTAT	0.135
CCTCAACA	0.0243
CGCTCAAG	-0.257
TCCCAACA	-0.0496
CGAAGCAA	-0.158
ACCCAGTC	0.204
AAGGTGAA	0.0584
AGTCAAGA	0.0425
ATTTGCTA	-0.0496
AAAATTTT	-0.351
AACCGTAG	-0.271
GTAGAAAC	-0.108
CGAACCAA	-0.0249
AAAGTTCG	-0.228
GGACTTAA	-0.181
AAAATCAC	0.154
CCCGCGAG	0.105
GCTCTACA	-0.0682

Sequence	PBM E-score
AGTACTAC	0.178
AGAGAAGC	0.0302
GGCTGGCA	-0.288
AAAATCAG	-0.0451
CAAGGTAA	0.0747
ATGGATTG	0.214
CTCTTATC	0.192
CTTATCAA	0.0621
GATTTTAA	-0.132
ACAACAGG	-0.0114
CTAAAAAA	-0.164
ATGAGTGC	0.0758
ATGCAAAT	-0.00247
AACCATCA	0.143
ATTCATAC	0.248
ATCAAGGA	0.0195
ACCGACCA	0.156
AAAGATCA	-0.0595
ACACCTAC	0.127
ATGTAAAA	-0.211
CCTTTCCC	-0.169
ACCGTCTC	0.0856
CCGTTGAC	0.0819
ATATTCAT	0.128
CATACCGG	0.108

Sequence	PBM E-score
CTGGTGTA	0.0814
CCATCTCG	0.104
ACGATTGG	-0.0471
AGCGGTTA	-0.0644
AGGGAGCG	0.0524
ATGCCTTC	-0.239
ATATCCCA	0.145
CAGTTGTA	0.0308
CGTCAATC	0.0648
AGAAGTAG	-0.116
ATTTTGGC	0.0388
ACTTTAAC	-0.178
ACTGGTTA	0.0929
ACAGGCCA	-0.0341
AGGTTGGA	0.0473
CTTTCCTA	-0.0946
ATCGTGTG	0.131
CTGTTGAA	0.0933
TACCCCGA	0.116
GTACAAAA	-0.0126
ACTCAAGG	0.245
ATTTCACC	-0.107
CAACGTTC	-0.0711
AGGCGACG	-0.145
GGGGACCC	0.00776

Sequence	PBM E-score
AATCTCCT	-0.169
CCCGTGAC	0.211
GTCGGATA	0.0181
ACTATATC	0.198
CATAGCTA	0.0366
ATGGAGAG	-0.167
CGAGGCCA	0.046
ACAAGGGC	-0.252
AGTGTAAG	0.0767
CCCTAAGG	-0.274
AGCGGAGA	0.096
TCAGTCAA	0.114
GATTGCGC	0.0275
CAGGGCGC	0.164
CGCGGAAC	0.0336
GGCGACAA	-0.0363
ACAGCCAA	-0.0902
TCTCCAGA	-0.0712
AAGAGTGA	0.0848
AGAACACT	0.108
GCGTCATA	0.0398
CTACCAAA	0.0392
ACCTGTGC	-0.13
GGTTGCTA	0.0991
CGAGTGAG	0.131

Sequence	PBM E-score
GTCTTCGA	0.00696
GACTGGGA	0.12
ATAGCGAG	-0.119
GACAGGGC	-0.0735
CTCCCAAC	-0.00407
ACTCAGCA	0.0929
CTCGTCGC	0.0225
AGGTCAAA	-0.0515
CCGGAAAC	-0.071
GGTCAGAA	-0.0961
GGAATTAA	-0.0606
CATACAAG	-0.0453
CCATGAGC	0.0512
CTCCGAAC	-0.0455
ATGTGTTG	0.229
ACTCTCAG	-0.0997
ACCCTGCT	-0.0137
CGTCGACA	0.0371
GACAAGCC	0.0205
GAGTCGAC	0.294
AGAAAGTC	-0.137
ATAAATCG	-0.0946
ACATAGTC	0.272
AGGCTTGG	-0.0677
AACCCGCA	0.123

Sequence	PBM E-score
ATGAACAC	-0.032
GCAAAGAA	-0.0293
AAAAATTT	-0.263
ACGAAAAT	0.0139
CACAGCCC	-0.0755
GTGAAGGA	-0.0414
CAAACCGA	0.0579
ACGTATGG	-0.0776
ACTTCAAG	0.0592
ACTGTCTA	0.13
GCTTCGCA	-0.219
AACAGGGG	-0.0515
AGGGCAAG	-0.0017
ATACGATG	0.0694
GAGCGAGC	0.103
AGCCCGAT	0.0332
TGTCCCAA	-0.025
ATCGTGGG	0.226
ATAGTCTG	-0.0734
CGTATCTC	0.0109
GACTCCTC	0.4
AGAGGCCA	-0.0855
AGTGCGAG	0.114
TCGTCTAA	-0.151
CCGGGATC	0.261

Sequence	PBM E-score
ACCAGAGG	-0.14
ACAATAGG	-0.00659
AATAAAGA	0.128
AATGCATA	0.0748
AGCGGTAA	0.0443
ATAGGCAC	-0.118
AGTTAGCA	-0.123
ACTATACG	0.132
ACTGTTCA	-0.0449
TCGCTAAA	-0.13
CACTCACA	0.264
AGGTCCAT	-0.0892
AGGCCGCA	-0.279
ATTATATA	0.0804
CCGACACA	0.208
CGATATCA	0.0702
CACCGTCC	0.091
AATCGCCG	-0.0215
GCCGGTGA	0.123
AGATAAAA	0.0186
AATTTCGT	-0.155
CGCTTGAG	-0.144
AAGCGACA	0.136
AAGGTAGT	0.107
AACGCAGC	-0.17

Sequence	PBM E-score
AGTAACGA	0.00277
GACACATA	0.197
AGGAACTC	-0.0636
AAACAGCC	-0.0663
GCTACGAA	-0.13
ATGATTGG	0.178
ACTCATCC	0.412
GACCCACC	0.224
GATACCCA	0.127
AACGCTCC	-0.141
CAATCTGG	0.0697
TAGATCAA	0.0192
CACATTAA	0.126
AAAGTGAT	0.1
AAAGCGTA	-0.183
GCACGATA	-0.00878
ACTAAAGC	0.022
AGCCTGAC	-0.0744
GCATGTAA	-0.17
ATCAGGCA	0.183
ACCTCTCT	-0.0884
ACCATCCA	0.126
CCATCAAG	-0.0361
GGACTCCA	0.13
AGAAAACG	-0.152

Sequence	PBM E-score
CCCCATGA	0.0682
CATACCTC	0.121
CCTGGGCA	-0.187
ATTAAGCG	0.0451
ACGTCTAT	0.0276
CGTCCGGA	-0.028
CACGTATA	0.0807
AGCGTTCA	-0.25
GGCAAACC	-0.0751
TAACCTCA	-0.0789
AGCTATGA	0.176
AAATCTGA	0.179
CATCGGAC	-0.0193
GCGGTGAA	-0.00362
CCATGAAA	-0.12
CTAGCCAC	-0.146
GCGTTGTA	0.0233
CCGGAGAC	0.155
ACTAGTAT	0.265
CAGAGGAC	-0.0753
ATAGAACC	0.0175
ACAGACCA	0.207
ACGGATCT	-0.0165
GTATTCGA	-0.024
GTGGGCGA	0.0418

Sequence	PBM E-score
GGAACTCA	-0.0114
TCATGGAA	0.179
AGTAGCAC	0.0694
CTGACCGC	0.0872
AAGGATAG	0.0266
TCATAGGA	0.116
ACATGGGT	0.0861
ACAAGGGT	-0.161
CGCGGATA	0.218
GGTAGTCA	0.427
ATCACCAG	0.111
ACTGAAAA	-0.241
CTTCTCTC	-0.0394
CTTAGCTA	-0.0821
ACGCCTCG	-0.132
AGCTACGC	-0.121
TAAAGAAA	-0.268
ACGTTAGG	-0.1
ACGAACGC	0.243
